Some of the results follow. At the low end of the ranking the order means little.

This test deals with T1, GST-Rok (full length) (UniProt O34857).
T1 sequence: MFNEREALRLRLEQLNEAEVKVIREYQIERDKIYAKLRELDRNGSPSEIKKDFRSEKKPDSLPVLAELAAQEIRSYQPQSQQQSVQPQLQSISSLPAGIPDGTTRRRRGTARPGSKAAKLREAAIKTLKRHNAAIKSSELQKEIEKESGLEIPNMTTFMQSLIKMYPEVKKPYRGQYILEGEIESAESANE
Put plainly: protein binding microarray.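 Further: rank score from −0.5 (least bound) to 0.5 (best bound).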 The conditions noted are these: Rok is a gene silencer of Bacillus subtilis; high values mean tight binding; most listed sequences are background and not binding sites; double strand, one strand shown.
On to TGCCCACA, for which the binding signal is -0.087 E-score. GCTACTAC gave a binding signal of 0.198 E-score. For CGCGTAAA, the binding signal came to 0.16 E-score. As for AACTAGGC, the binding signal worked out at 0.118 E-score. Consider GGAGAGAA, for which the binding signal was determined as 0.0161 E-score. Take CGCATATA: the binding signal is 0.188 E-score.

Sequence CAGGTTGA gave a binding signal of -0.17 E-score.

The sequence AACAAGGG had a binding signal of -0.177 E-score.

In turn, GGCTGAGA yielded a binding signal of -0.0944 E-score. AGGGACTC yielded a binding signal of -0.392 E-score. Turning to GAGTGACC, the binding signal is -0.201 E-score. In turn, GTTATAAA registered a binding signal of 0.171 E-score.

ACACACCT: the binding signal amounted to 0.159 E-score.

Consider TAACAACA, for which the binding signal was -0.0399 E-score. Consider GGCCCATA, for which the binding signal is -0.0355 E-score. Regarding CGAACAGC, the binding signal is -0.159 E-score. In the case of GGCTTGCA it was -0.123 E-score; in that of CGGGGCGA, -0.286 E-score. For the sequence AATGATAA, the binding signal is 0.259 E-score. As for AGTATAGA, the binding signal is 0.159 E-score. With GCTAACCA the figure was 0.0624 E-score. With CAGATCGA the figure was 0.0233 E-score; with AGAACTCA, 0.133 E-score.

CAGGGTAA showed a binding signal of -0.221 E-score. For the sequence ACGTTCCA, the binding signal is 0.0469 E-score.

In turn, CGAAAATC came in with a binding signal of 0.0722 E-score.

CCAGACAA came in with a binding signal of -0.259 E-score.

Consider ACACACTG, for which the binding signal was -0.228 E-score.

As for GTACAAAC, the binding signal was found to be 0.327 E-score. In turn, CCAGAGGC returned a binding signal of -0.131 E-score. With AGCGAGCG, the binding signal was -0.209 E-score.

The sequence AACCGGAC had a binding signal of -0.183 E-score. In the case of CAGCGGGG it was -0.214 E-score; in that of CCTATTCG, 0.00494 E-score.

Sequence CCGAATGC showed a binding signal of -0.127 E-score. In the case of GTGCAGGA it was -0.104 E-score. As for TACACTCA, the binding signal came to 0.0656 E-score. CCTCTCTC gave a binding signal of -0.21 E-score.

Sequence CTATTGAA registered a binding signal of 0.0527 E-score. ACAAGCCG came in with a binding signal of -0.0981 E-score. In the case of AACAGGTC it was -0.114 E-score. ACCTGACC registered a binding signal of 0.136 E-score. In the case of ACCAGATG it was -0.0832 E-score; in that of CATTGTAG, 0.103 E-score.

In the case of GCAATACA, the binding signal came to 0.115 E-score. With CACGTGTC the figure was 0.0409 E-score; with AAACTCAT, -0.00723 E-score.

CCTCGTGA returned a binding signal of -0.104 E-score. Turning to TCGAGACA, the binding signal was -0.0316 E-score.

Turning to CATAACAC, the binding signal amounted to 0.0293 E-score. GGGGTCAC: the binding signal was -0.419 E-score. TTAAAGAA returned a binding signal of -0.0809 E-score. With ACGGCTGG, the binding signal was -0.163 E-score.

As for ATTCAATC, the binding signal was determined as 0.15 E-score. The sequence ATCGGTGA yielded a binding signal of 0.0617 E-score. CTGCGAGC: the binding signal is -0.129 E-score. With TATATCAA the figure was 0.316 E-score; with ACTAGAGC, 0.122 E-score.

In the case of ACACCAGC, the binding signal was -0.176 E-score.

Take AAGCCTTA: the binding signal is -0.175 E-score.

As for ACAGGAGT, the binding signal was found to be 0.0409 E-score. In the case of GCGGCGCA it was -0.342 E-score; in that of AAGCAGGT, -0.0336 E-score; in that of AACCGCAA, -0.0711 E-score. Regarding GCAGGCAA, the binding signal was -0.116 E-score. Turning to CTGCAAAA, the binding signal is 0.0156 E-score. With AGATCTCC the figure was -0.0139 E-score; with GCCGACTA, -0.115 E-score; with GGAGACAC, -0.245 E-score. AGACCCCA yielded a binding signal of -0.387 E-score. The sequence ATCTCGCG gave a binding signal of 0.171 E-score. ATCCTTGA showed a binding signal of -0.0312 E-score. Sequence GAGCAATA registered a binding signal of 0.223 E-score. In turn, GCTTCACA yielded a binding signal of -0.114 E-score. For the sequence GATTAGCC, the binding signal was -0.161 E-score. In the case of CGGGCCTC it was -0.278 E-score. On to CTCACCAC, for which the binding signal was found to be 0.0621 E-score. As to AAGCGAAT, the binding signal was -0.0766 E-score. AGTCTACG showed a binding signal of 0.09 E-score. For CGAACGGC, the binding signal is -0.312 E-score. Consider CCGTGATC, for which the binding signal was 0.0178 E-score. In turn, CGTCGCGA had a binding signal of -0.0337 E-score.

For the sequence GCCGAGCC, the binding signal is -0.338 E-score. CGGACCAA registered a binding signal of -0.0996 E-score.

Sequence GGTCGTAA had a binding signal of 0.0357 E-score.

In the case of ACTCGGCC, the binding signal is -0.0884 E-score. The sequence GGCCGCAA yielded a binding signal of -0.231 E-score.

As to GAGTACAC, the binding signal amounted to 0.041 E-score. On to CGCTACTA, for which the binding signal amounted to 0.28 E-score. ACTCGCAT gave a binding signal of -0.0234 E-score.

In turn, CACGGCGG displayed a binding signal of -0.321 E-score. CGTATGAC: the binding signal was -0.117 E-score.

Consider CACCTACC, for which the binding signal is 0.0555 E-score. On to CGTAGTAA, for which the binding signal was 0.198 E-score.

Take CACACGGA: the binding signal is -0.0701 E-score.

The sequence GAACAGAA displayed a binding signal of 0.0425 E-score. The sequence AATGCCCC gave a binding signal of -0.243 E-score. In the case of ACTTTCCG it was 0.0454 E-score. Regarding ATTGAGCC, the binding signal is -0.225 E-score. The sequence ATTATGTA came in with a binding signal of 0.358 E-score. As for TGGCAAAA, the binding signal was 0.0417 E-score. Turning to ATCGGCGG, the binding signal is -0.266 E-score. CTCTCTTA: the binding signal was -0.189 E-score. Turning to CGCCATCC, the binding signal was -0.324 E-score. ACGTCGTA had a binding signal of 0.0992 E-score. The sequence GATTACGC came in with a binding signal of -0.0574 E-score.

ATATCGAA: the binding signal was determined as 0.19 E-score.

CCAAGGGC: the binding signal was -0.279 E-score.

For CCAGCACG, the binding signal was -0.154 E-score.

Regarding ACCTGGGC, the binding signal was -0.177 E-score. As to CGATTCCA, the binding signal stood at 0.0584 E-score. Regarding CTCGTCCC, the binding signal is -0.243 E-score. Sequence ACTTGCGG registered a binding signal of 0.0475 E-score. In the case of ACGACAGA it was -0.0532 E-score; in that of GTGGAGGA, -0.271 E-score. On to GCGTACTA, for which the binding signal was 0.082 E-score. Sequence CGCCACTA registered a binding signal of -0.056 E-score. Sequence ATGGTCCA showed a binding signal of -0.0725 E-score. With CAACTATA, the binding signal is 0.307 E-score. With CCCTTTTA the figure was -0.102 E-score; with TGTCTAAA, 0.0409 E-score. Regarding TATGGCAA, the binding signal was 0.0101 E-score.

CAAAGCGC yielded a binding signal of -0.101 E-score. Take AAGGGACT: the binding signal was -0.149 E-score. In the case of AATGCGCA it was -0.0491 E-score; in that of GACGTGGA, -0.18 E-score; in that of AAATTAGC, 0.206 E-score. With ATGATCTC the figure was 0.00397 E-score; with GTCTCGGA, -0.109 E-score. Sequence ATAAACGG gave a binding signal of 0.169 E-score. With AACTCCCC the figure was -0.216 E-score; with TGAGACCA, -0.117 E-score.

ACCACCGC registered a binding signal of -0.0949 E-score. AAACAATA had a binding signal of 0.246 E-score.

In turn, CTTTAATC yielded a binding signal of 0.000899 E-score. CGCGCTGA returned a binding signal of 0.105 E-score. In the case of AATAACAT it was 0.101 E-score. As to AATATCGG, the binding signal was 0.291 E-score. GGAGTATA had a binding signal of 0.000352 E-score. Regarding CCTGGAAG, the binding signal was -0.179 E-score. AGGCAAAG: the binding signal was -0.276 E-score. In turn, CTGTAATA came in with a binding signal of 0.313 E-score. Consider CATTAAGG, for which the binding signal was -0.054 E-score. The sequence ATCCATGG showed a binding signal of 0.12 E-score. In the case of TATTCACA it was 0.2 E-score. With GCAAACGA the figure was -0.117 E-score. In the case of CAAGAACG it was 0.0325 E-score. The sequence GGTATCCA showed a binding signal of 0.0599 E-score. As to AAAACGGT, the binding signal amounted to 0.0886 E-score. In the case of TACTGGGA it was 0.159 E-score. With ACGGGCGG, the binding signal was -0.335 E-score. Regarding AAGCACAG, the binding signal was -0.0868 E-score.

As for ACCAATTG, the binding signal is 0.0883 E-score. In the case of ACGGTTTA, the binding signal came out at 0.0261 E-score. Take CTACTTAC: the binding signal turned out to be 0.294 E-score. With CCCACAAG, the binding signal is -0.217 E-score. Sequence GCTAGTCA registered a binding signal of -0.0821 E-score. ATAAAGGA: the binding signal is -0.0384 E-score. Take AGCCTAAC: the binding signal is -0.0514 E-score. In turn, AGATGCCG had a binding signal of 0.00234 E-score. For the sequence ATCTAAAG, the binding signal is -0.0448 E-score. Sequence ATATCTGG returned a binding signal of 0.112 E-score. With CGCTACCC the figure was -0.127 E-score.

For ACCTCATC, the binding signal came to 0.031 E-score. In the case of GACGCGAA it was -0.0941 E-score. In the case of ACTCTAGA it was 0.114 E-score. Sequence ATTCTATG showed a binding signal of 0.0909 E-score. In the case of CCTCCCCG it was -0.407 E-score; in that of AGGACTAA, -0.0661 E-score. In turn, GATATGGC displayed a binding signal of -0.0832 E-score. On to CCCTAGTC, for which the binding signal is -0.25 E-score. The sequence CACTCTAG gave a binding signal of -0.0364 E-score.

Source of the values: publication PMC6212790.
